From the supplement of paper PMC11876631 come the findings set out here.

For this data set, the target named is Escherichia coli (laboratory strain). In words: barcode share on antibiotic plates over drug-free plates; higher = less susceptible. The procedure:
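A pool of E. coli strains, each edited to carry one amino-acid change in an essential protein, was grown for 48 h on minimal glucose agar with or without antibiotic; strain barcodes were sequenced; mean of two replicates.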

Where [1] appears, read: antibiotic: carbenicillin, 2× MIC (3.1 µg/mL).
[2] abbreviates: antibiotic: gentamicin, 2× MIC (MIC 0.45 µg/mL).

± gives the standard deviation of the averaged measurements. Laboratory Escherichia coli strains with one amino-acid change in an essential protein, pooled on minimal glucose agar with carbenicillin or gentamicin at twice the control MIC (plus kanamycin and chloramphenicol for the plasmids), 48 h. Fold change of barcode share against drug-free plates; higher = less susceptible. Active = above 20 in both replicates (the paper's putatively resistant). '<' = one read or none on drug, '>' = one read or none on a drug-free plate. Shares are relative, so most strains fall below 1 when a few take over. Listed are strains with at least 15 reads on both drug-free plates, and hits; most hits rest on fewer reference reads. Replicate rank correlation about 0.5. Edits are read from barcodes. Some results are limits rather than exact numbers.

B1: murD V108A (protein)
chain: MADYQGKNVVIIGLGLTGLSCVDFFLARGVTPRVMDTRMTPPGLDKLPEAVERHTGSLNDEWLMAADLIVASPGIALAHPSLSAAADAGIEIVGDIELFCREAQAPIAAITGSNGKSTVTTLVGEMAKAAGVNVGVGGNIGLPALMLLDDECELYVLELSSFQLETTSSLQAVAATILNVTEDHMDRYPFGLQQYRAAKLRIYENAKVCVVNADDALTMPIRGADERCVSFGVNMGDYHLNHQQGETWLRVKGEKVLNVKEMKLSGQHNYTNALAALALADAAGLPRASSLKALTTFTGLPHRFEVVLEHNGVRWINDSKATNVGSTEAALNGLHVDGTLHLLLGGDGKSADFSPLARYLNGDNVRLYCFGRDGAQLAALRPEVAEQTETMEQAMRLLAPRVQPGDMVLLSPACASLDQFKNFEQRGNEFARLAKELG
In the case of B1, the “fold change of barcode share” value was 0.361 ± 0.15 under setting [1] and less than 0.00657 under setting [2].

B2: murD L178P (protein)
chain: MADYQGKNVVIIGLGLTGLSCVDFFLARGVTPRVMDTRMTPPGLDKLPEAVERHTGSLNDEWLMAADLIVASPGIALAHPSLSAAADAGIEIVGDIELFCREAQAPIVAITGSNGKSTVTTLVGEMAKAAGVNVGVGGNIGLPALMLLDDECELYVLELSSFQLETTSSLQAVAATIPNVTEDHMDRYPFGLQQYRAAKLRIYENAKVCVVNADDALTMPIRGADERCVSFGVNMGDYHLNHQQGETWLRVKGEKVLNVKEMKLSGQHNYTNALAALALADAAGLPRASSLKALTTFTGLPHRFEVVLEHNGVRWINDSKATNVGSTEAALNGLHVDGTLHLLLGGDGKSADFSPLARYLNGDNVRLYCFGRDGAQLAALRPEVAEQTETMEQAMRLLAPRVQPGDMVLLSPACASLDQFKNFEQRGNEFARLAKELG
As for B2, the “fold change of barcode share” value is, setting by setting: under setting [1], 0.536 ± 0.47; under setting [2], less than 0.016.

B3: murD L178A (protein)
chain: MADYQGKNVVIIGLGLTGLSCVDFFLARGVTPRVMDTRMTPPGLDKLPEAVERHTGSLNDEWLMAADLIVASPGIALAHPSLSAAADAGIEIVGDIELFCREAQAPIVAITGSNGKSTVTTLVGEMAKAAGVNVGVGGNIGLPALMLLDDECELYVLELSSFQLETTSSLQAVAATIANVTEDHMDRYPFGLQQYRAAKLRIYENAKVCVVNADDALTMPIRGADERCVSFGVNMGDYHLNHQQGETWLRVKGEKVLNVKEMKLSGQHNYTNALAALALADAAGLPRASSLKALTTFTGLPHRFEVVLEHNGVRWINDSKATNVGSTEAALNGLHVDGTLHLLLGGDGKSADFSPLARYLNGDNVRLYCFGRDGAQLAALRPEVAEQTETMEQAMRLLAPRVQPGDMVLLSPACASLDQFKNFEQRGNEFARLAKELG
As to B3, the “fold change of barcode share” value under setting [1] is 0.199 ± 0.0036 and the “fold change of barcode share” value under setting [2] was less than 0.00662.

B4: murD V108W (protein)
chain: MADYQGKNVVIIGLGLTGLSCVDFFLARGVTPRVMDTRMTPPGLDKLPEAVERHTGSLNDEWLMAADLIVASPGIALAHPSLSAAADAGIEIVGDIELFCREAQAPIWAITGSNGKSTVTTLVGEMAKAAGVNVGVGGNIGLPALMLLDDECELYVLELSSFQLETTSSLQAVAATILNVTEDHMDRYPFGLQQYRAAKLRIYENAKVCVVNADDALTMPIRGADERCVSFGVNMGDYHLNHQQGETWLRVKGEKVLNVKEMKLSGQHNYTNALAALALADAAGLPRASSLKALTTFTGLPHRFEVVLEHNGVRWINDSKATNVGSTEAALNGLHVDGTLHLLLGGDGKSADFSPLARYLNGDNVRLYCFGRDGAQLAALRPEVAEQTETMEQAMRLLAPRVQPGDMVLLSPACASLDQFKNFEQRGNEFARLAKELG
Regarding B4, the “fold change of barcode share” value runs as follows: under setting [1], 0.79 ± 0.2; under setting [2], less than 0.00688.

B5: murD V108D (protein)
chain: MADYQGKNVVIIGLGLTGLSCVDFFLARGVTPRVMDTRMTPPGLDKLPEAVERHTGSLNDEWLMAADLIVASPGIALAHPSLSAAADAGIEIVGDIELFCREAQAPIDAITGSNGKSTVTTLVGEMAKAAGVNVGVGGNIGLPALMLLDDECELYVLELSSFQLETTSSLQAVAATILNVTEDHMDRYPFGLQQYRAAKLRIYENAKVCVVNADDALTMPIRGADERCVSFGVNMGDYHLNHQQGETWLRVKGEKVLNVKEMKLSGQHNYTNALAALALADAAGLPRASSLKALTTFTGLPHRFEVVLEHNGVRWINDSKATNVGSTEAALNGLHVDGTLHLLLGGDGKSADFSPLARYLNGDNVRLYCFGRDGAQLAALRPEVAEQTETMEQAMRLLAPRVQPGDMVLLSPACASLDQFKNFEQRGNEFARLAKELG
On to B5, for which the “fold change of barcode share” value reads like this: under setting [1], 0.366 ± 0.22; under setting [2], less than 0.00965.

B6: murD L178D (protein)
chain: MADYQGKNVVIIGLGLTGLSCVDFFLARGVTPRVMDTRMTPPGLDKLPEAVERHTGSLNDEWLMAADLIVASPGIALAHPSLSAAADAGIEIVGDIELFCREAQAPIVAITGSNGKSTVTTLVGEMAKAAGVNVGVGGNIGLPALMLLDDECELYVLELSSFQLETTSSLQAVAATIDNVTEDHMDRYPFGLQQYRAAKLRIYENAKVCVVNADDALTMPIRGADERCVSFGVNMGDYHLNHQQGETWLRVKGEKVLNVKEMKLSGQHNYTNALAALALADAAGLPRASSLKALTTFTGLPHRFEVVLEHNGVRWINDSKATNVGSTEAALNGLHVDGTLHLLLGGDGKSADFSPLARYLNGDNVRLYCFGRDGAQLAALRPEVAEQTETMEQAMRLLAPRVQPGDMVLLSPACASLDQFKNFEQRGNEFARLAKELG
As to B6, the “fold change of barcode share” value runs as follows: under setting [1], 0.367 ± 0.17; under setting [2], 0.018 ± 0.0079.

B7: murD L178Q (protein)
chain: MADYQGKNVVIIGLGLTGLSCVDFFLARGVTPRVMDTRMTPPGLDKLPEAVERHTGSLNDEWLMAADLIVASPGIALAHPSLSAAADAGIEIVGDIELFCREAQAPIVAITGSNGKSTVTTLVGEMAKAAGVNVGVGGNIGLPALMLLDDECELYVLELSSFQLETTSSLQAVAATIQNVTEDHMDRYPFGLQQYRAAKLRIYENAKVCVVNADDALTMPIRGADERCVSFGVNMGDYHLNHQQGETWLRVKGEKVLNVKEMKLSGQHNYTNALAALALADAAGLPRASSLKALTTFTGLPHRFEVVLEHNGVRWINDSKATNVGSTEAALNGLHVDGTLHLLLGGDGKSADFSPLARYLNGDNVRLYCFGRDGAQLAALRPEVAEQTETMEQAMRLLAPRVQPGDMVLLSPACASLDQFKNFEQRGNEFARLAKELG
As for B7, the “fold change of barcode share” value was 0.175 ± 0.01 under setting [1] and less than 0.00624 under setting [2].

B8: murD V108P (protein)
chain: MADYQGKNVVIIGLGLTGLSCVDFFLARGVTPRVMDTRMTPPGLDKLPEAVERHTGSLNDEWLMAADLIVASPGIALAHPSLSAAADAGIEIVGDIELFCREAQAPIPAITGSNGKSTVTTLVGEMAKAAGVNVGVGGNIGLPALMLLDDECELYVLELSSFQLETTSSLQAVAATILNVTEDHMDRYPFGLQQYRAAKLRIYENAKVCVVNADDALTMPIRGADERCVSFGVNMGDYHLNHQQGETWLRVKGEKVLNVKEMKLSGQHNYTNALAALALADAAGLPRASSLKALTTFTGLPHRFEVVLEHNGVRWINDSKATNVGSTEAALNGLHVDGTLHLLLGGDGKSADFSPLARYLNGDNVRLYCFGRDGAQLAALRPEVAEQTETMEQAMRLLAPRVQPGDMVLLSPACASLDQFKNFEQRGNEFARLAKELG
Regarding B8, the “fold change of barcode share” value was 0.426 ± 0.35 under setting [1] and less than 0.00974 under setting [2].

B9: murD V108Q (protein)
chain: MADYQGKNVVIIGLGLTGLSCVDFFLARGVTPRVMDTRMTPPGLDKLPEAVERHTGSLNDEWLMAADLIVASPGIALAHPSLSAAADAGIEIVGDIELFCREAQAPIQAITGSNGKSTVTTLVGEMAKAAGVNVGVGGNIGLPALMLLDDECELYVLELSSFQLETTSSLQAVAATILNVTEDHMDRYPFGLQQYRAAKLRIYENAKVCVVNADDALTMPIRGADERCVSFGVNMGDYHLNHQQGETWLRVKGEKVLNVKEMKLSGQHNYTNALAALALADAAGLPRASSLKALTTFTGLPHRFEVVLEHNGVRWINDSKATNVGSTEAALNGLHVDGTLHLLLGGDGKSADFSPLARYLNGDNVRLYCFGRDGAQLAALRPEVAEQTETMEQAMRLLAPRVQPGDMVLLSPACASLDQFKNFEQRGNEFARLAKELG
Take B9: the “fold change of barcode share” value is, setting by setting: under setting [1], 0.36 ± 0.23; under setting [2], less than 0.00807.

B10: murE F204A (protein)
chain: MADRNLRDLLAPWVPDAPSRALREMTLDSRVAAAGDLFVAVVGHQADGRRYIPQAIAQGVAAIIAEAKDEATDGEIREMHGVPVIYLSQLNERLSALAGRFYHEPSDNLRLVGVTGTNGKTTTTQLLAQWSQLLGEISAVMGTVGNGLLGKVIPTENTTGSAVDVQHELAGLVDQGATFCAMEVSSHGLVQHRVAALKFAASVATNLSRDHLDYHGDMEHYEAAKWLLYSEHHCGQAIINADDEVGRRWLAKLPDAVAVSMEDHINPNCHGRWLKATEVNYHDSGATIRFSSSWGDGEIESHLMGAFNVSNLLLALATLLALGYPLADLLKTAARLQPVCGRMEVFTAPGKPTVVVDYAHTPDALEKALQAARLHCAGKLWCVFGCGGDRDKGKRPLMGAIAEEFADVAVVTDDNPRTEEPRAIINDILAGMLDAGHAKVMEGRAEAVTCAVMQAKENDVVLVAGKGHEDYQIVGNQRLDYSDRVTVARLLGVIA
Consider B10, for which the “fold change of barcode share” value was 0.338 ± 0.011 under setting [1] and 0.0114 ± 0.0058 under setting [2].

B11: murE F204W (protein)
chain: MADRNLRDLLAPWVPDAPSRALREMTLDSRVAAAGDLFVAVVGHQADGRRYIPQAIAQGVAAIIAEAKDEATDGEIREMHGVPVIYLSQLNERLSALAGRFYHEPSDNLRLVGVTGTNGKTTTTQLLAQWSQLLGEISAVMGTVGNGLLGKVIPTENTTGSAVDVQHELAGLVDQGATFCAMEVSSHGLVQHRVAALKFAASVWTNLSRDHLDYHGDMEHYEAAKWLLYSEHHCGQAIINADDEVGRRWLAKLPDAVAVSMEDHINPNCHGRWLKATEVNYHDSGATIRFSSSWGDGEIESHLMGAFNVSNLLLALATLLALGYPLADLLKTAARLQPVCGRMEVFTAPGKPTVVVDYAHTPDALEKALQAARLHCAGKLWCVFGCGGDRDKGKRPLMGAIAEEFADVAVVTDDNPRTEEPRAIINDILAGMLDAGHAKVMEGRAEAVTCAVMQAKENDVVLVAGKGHEDYQIVGNQRLDYSDRVTVARLLGVIA
As for B11, the “fold change of barcode share” value reads like this: under setting [1], 0.363 ± 0.11; under setting [2], less than 0.0163.
